Data as given in publication PMC6919601, “Identification of Plasmodium dipeptidyl aminopeptidase allosteric inhibitors by high throughput screening” (PLoS ONE, 2019).
Hit rate of the full screen: of about 110,000 compounds, about 230 (0.21%) showed an effect of 50% or more. This is one part of the list.

Target: DPAP1 (Plasmodium falciparum, UniProt Q8IIJ9)
Assay: primary screen, percent inhibition; read by cleavage of a fluorogenic dipeptide substrate; higher = more effect of the substance
Set-up: species or system P. falciparum D10 trophozoite lysates; single well
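Note: 30 min substrate incubation versus DMSO and 10 µM JCP410 controls.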

Chain of DPAP1 (Q8IIJ9 whole entry, looked up): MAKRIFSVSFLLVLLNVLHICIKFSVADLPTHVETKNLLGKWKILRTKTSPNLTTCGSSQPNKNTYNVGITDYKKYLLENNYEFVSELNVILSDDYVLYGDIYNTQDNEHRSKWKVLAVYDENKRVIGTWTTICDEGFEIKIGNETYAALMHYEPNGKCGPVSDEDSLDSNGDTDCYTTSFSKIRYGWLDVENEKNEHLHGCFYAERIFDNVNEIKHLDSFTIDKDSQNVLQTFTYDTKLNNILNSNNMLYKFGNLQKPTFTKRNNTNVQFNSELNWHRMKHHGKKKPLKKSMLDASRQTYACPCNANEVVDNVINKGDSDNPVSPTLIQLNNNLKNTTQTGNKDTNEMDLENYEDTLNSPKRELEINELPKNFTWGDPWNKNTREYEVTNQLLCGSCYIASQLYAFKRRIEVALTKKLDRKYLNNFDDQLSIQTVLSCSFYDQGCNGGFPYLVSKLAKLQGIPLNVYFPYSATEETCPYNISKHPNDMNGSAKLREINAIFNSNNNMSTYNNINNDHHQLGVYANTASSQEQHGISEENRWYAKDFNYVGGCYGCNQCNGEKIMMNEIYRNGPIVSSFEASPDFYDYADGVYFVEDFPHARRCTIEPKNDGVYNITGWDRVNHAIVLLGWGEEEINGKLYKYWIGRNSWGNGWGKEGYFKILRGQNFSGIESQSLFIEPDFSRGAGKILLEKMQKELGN

SMILES | % Inhibition @ 10 uM [%]
CCOC(=O)N1CCC(NC(=O)CCCn2nc(C)n3c(cc4sccc43)c2=O)CC1 | -1.58
Cc1ccc(Cl)cc1-n1ncc2c(NCCN(C)C)ncnc21 | 3.99
O=C(Nc1ccc2c(c1)C(=O)N(c1ccccc1)C2=O)C1CCCO1 (stereo not drawn) | -1.45
CCC(C)Sc1nc2c(c(=O)[nH]c(=O)n2C)n1C/C=C(/C)Cl (stereo not drawn) | -0.13
CC(C)C[C@H](NC(=O)c1ccc(N2CCN(c3ccncc3)CC2)cc1)C(=O)NCC#N | 0.744
CCc1c2c(nc3sc(C(=O)Nc4cccc(OC)c4)c(N)c13)CC(C)(C)CC2=O | 10.1
CCOc1cc2c(cc1/C=C1/NC(=O)NC1=O)OCO2 | -2.17
COc1ccc2ccc(OC)c(/C=C3\S/C(=N/c4ccc(C(=O)O)cc4)N(C)C3=O)c2c1 | -0.736
CC(C)(C)C(=O)O/N=C(\N)c1ccccn1 | 4.06
Cc1cc(OCC(=O)NCC2CCCO2)cc(C)c1Cl (stereo not drawn) | -7
CCc1ccc2c(Cl)c(C(=O)N3CCN(C(=O)c4ccco4)CC3)sc2c1 | -6.7
COc1ccc(NS(=O)(=O)c2ccc(NC(=O)C3CC3)cc2)cc1 | -4.02
CC(C)(Nc1ccccc1)c1nnnn1C(/C=C\c1ccc(Cl)cc1Cl)C(C)(C)C (stereo not drawn) | -5.38
C1=CC2(CCN(Cc3ccc4c(c3)OCO4)CC2)c2ccccc21 | 4.9
Cc1cccc(NC(=O)c2cc3c(O)nc4ccccc4c3s2)n1 | 2.69
N#CC1=C(N)OC2=C(C(=O)CC(c3ccco3)C2)C1c1cccc(F)c1 (stereo not drawn) | -1.06
N#CCNC(=O)[C@H](Cc1c(F)cccc1F)NC(=O)c1ccc(-c2ccc(C(=O)O)cc2Cl)cc1 | -3.14
O=C(O)C1C2C=CC(C2)C1C(=O)N1CCN(c2cccc(Cl)c2)CC1 (stereo not drawn) | -1.44
COC(=O)C1=CN(CCOC23CC4CC(CC(C4)C2)C3)C=C(C(=O)OC)C1c1ccc(OC)cc1 | 5.38
Cc1cccc(N2C(=O)c3ccc(C45CC6CC(CC(C6)C4)C5)cc3C2=O)n1 | -1.72
Cc1noc(C)c1S(=O)(=O)N1CCC(C(=O)NCCc2ccc(Cl)cc2)CC1 | -8.81
CN1C(=O)CC(C(=O)Nc2ccccc2F)S/C1=N/c1ccc2c(c1)OCO2 (stereo not drawn) | -3.63
CC(=O)N1c2ccccc2N=C2CC(c3ccc(F)cc3)CC(O)=C2C1c1cccnc1 (stereo not drawn) | -1.06
CCc1ccc(N2C(=O)CC(N3CCN(c4ccccc4F)CC3)C2=O)cc1 (stereo not drawn) | 1.52

SMILES | % Inhibition @ 10 uM [%]
COc1ccc(C2C(C#N)=C(N)N(c3cccnc3)C3=C2C(=O)CC(C)(C)C3)cc1OC (stereo not drawn) | 4.28
Cc1ccc(NC(=O)CSc2nc(O)cc(C(F)(F)F)n2)cc1C | 2.51
COc1cccc(CN2CCN(Cc3ccccc3)CC2)c1 | -7.49
CC(C)C(NC(=O)/C(=C/c1ccco1)NC(=O)c1ccc(Br)o1)C(=O)O (stereo not drawn) | 3.96
CC(C)SC1=NSC2=NC(=O)/C(=C\c3ccco3)C(=N)N21 | -1
Cc1ccc(CN(CC(=O)Nc2cccc(F)c2)S(=O)(=O)c2ccccc2)cc1 | -3.76
Cc1cccc(OCC(=O)N(Cc2nc(-c3ccccc3)no2)C(C)C)c1C | -5.58
O=C(NCc1ccco1)C1CCCCN1S(=O)(=O)c1ccc(F)cc1 (stereo not drawn) | 1.23
CCOc1cc(C2c3c(-c4ccccc4O)n[nH]c3C(=O)N2CCCO)ccc1O (stereo not drawn) | 2.02
Cc1ccc(C)c(NC(=O)C2CC(=O)N(c3ccc(F)cc3)C2)c1 (stereo not drawn) | -1.28
Cc1ccccc1Cn1c(=O)c(F)cn(C2CCCO2)c1=O (stereo not drawn) | 0.385
CCN(CCN(C)C)C1CCC(C(C)(C)C)CC1 (stereo not drawn) | -6
CN(C)CCCN(C(=O)Cc1ccccc1)c1nc2ccc(Cl)cc2s1 | 4.68
CCC1CCCCN1C(=O)CSc1nc(O)c2c(n1)CCC2 (stereo not drawn) | -10.4
CCOC(=O)c1conc1-c1ccc(N(C)C)cc1 | -5.11
Cc1noc2ncnc(N3CCC(C(N)=O)CC3)c12 | -6.33
O=C(/C=C/c1ccc2c(c1)OCO2)Nc1ccc(Br)cc1 | 2.94
Oc1ccccc1-c1cc(-c2ccccc2)[nH]n1 | -2.34
COc1ccc(CNC(=O)C2=CC(c3cccs3)=NS(=O)(=O)N2C)cc1 | 2.32
O=C1c2ccccc2C(=O)N1CN(CN1C(=O)c2ccccc2C1=O)C1CC1 | -0.522
CCCCNCc1cccn1-c1sc2c(c1C#N)CCCC2 | -5.96
COCCn1c(SCc2ccccc2Cl)nc2c1c(=O)[nH]c(=O)n2C | 0.673
O=C(NCc1ccccc1Cl)c1cc2c(s1)-c1ccc(Cl)cc1S(=O)(=O)C2 | -2.67
CCCCn1c(=O)c2oc3ccccc3c2n(CC(=O)NCc2ccc(C)cc2)c1=O | -0.326

SMILES | % Inhibition @ 10 uM [%]
O=C1C(=C/C=C/c2ccccc2)C(=O)c2ccccc21 | -4.11
O=S(=O)(Nc1ccc(NS(=O)(=O)c2ccc(F)cc2)cc1)c1ccc(F)cc1 | -1.42
C=C(C)Cn1c(COc2ccc(OC)cc2)nc2ccccc21 | 3.12
O=c1/c(=C/c2cccs2)sc2nc(-c3ccc(Br)cc3)nn12 | 1.91
Cc1nc(N2C(=O)c3oc4ccccc4c(=O)c3C2c2cccc(Oc3ccccc3)c2)sc1C (stereo not drawn) | 1.19
O=C(COc1ccc2ccccc2c1)Nc1cccc(Cl)c1 | -2.8
Cc1ccccc1NC(=O)c1cc(Cl)ccc1NC(=O)c1ccco1 | -7.14
COc1ccc(-c2csc(/C(C#N)=C\Nc3ccc(Br)cc3)n2)cc1 | -3.19
Cc1[nH]c2ccccc2c1C(=O)CSc1nnnn1C | -5.53
CCOc1ccc2[nH]c(SCc3ccc(C)cc3)nc2c1 | -3.14
CN1C2C=C(N(C(=O)c3ccc(Cl)cc3)c3ccccc3)CC1CC2 (stereo not drawn) | -4.21
CC1(C)Oc2ccc3ccc(=O)oc3c2C(/C=N/C23CN4CN(CN(C4)C2)C3)=C1O | -3.13
NC1=NC(c2ccc(OCc3ccccc3)cc2)n2c(nc3ccccc32)N1 (stereo not drawn) | -1.11
CN1CCN(c2nc3c(c(=O)[nH]c(=O)n3C)n2CCc2ccccc2)CC1 | 3.44
Cc1nc([N+](=O)[O-])cn1-c1ccccc1N | -0.687
O=C(Nc1cc(Cl)cc(Cl)c1)c1ccc(C(=O)Nc2cc(Cl)cc(Cl)c2)cc1 | -1.22
CCOC(=O)N1CCC(NC(=O)CSCc2nc(-c3ccc(C)cc3)oc2C)CC1 | 2.37
Clc1ccc(CCNc2nc3ccccc3c3nc(-c4cccnc4)nn23)cc1 | 2.6
Nc1ccc(-c2nc3cc(N)ccc3s2)c(O)c1 | 3.83
CCn1c2ccccc2c2cc(CN3CCN(c4ccc(F)cc4)CC3)ccc21 | -0.969
COc1ccc(Cc2nnc(NC(=O)Cc3ccc(F)cc3)s2)cc1OC | 2.16
CC1CC(C)CN(CC(O)COCCOc2ccc(Br)cc2)C1 (stereo not drawn) | 0.907
COc1ccc(-c2c(C(C)=O)c(C)nc3sc4c(=O)n(-c5ccccc5)cnc4c23)cc1 | -15.4
CN(CC(O)c1ccccc1)C1CCC(C(C)(C)C)CC1 (stereo not drawn) | -1.75

SMILES | % Inhibition @ 10 uM [%]
Nc1cccc2c1nnn2C1OC(CO)C(O)C(O)C1O (stereo not drawn) | -0.0267
COc1ccc(-c2coc3c(C)c4oc(=O)c(CC(=O)O)c(C)c4cc23)cc1 | 6.85
CC1=C(C(=O)Nc2ccc(F)cc2)C(c2ccccc2C)C2=C(O)CCCC2=N1 (stereo not drawn) | 5.66
CC(=O)NCCc1ccc(S(=O)(=O)N2CCOCC2)cc1 | -5
OC(C#CC12CC3CC(CC(C3)C1)C2)c1ccccn1 (stereo not drawn) | 1.02
CCOCCCN1CNc2c(c(=O)n(C)c(=O)n2C)C1 | -6.67
COC(F)(C(=O)Nc1sc(C(=O)N2CCCCC2)c(C)c1C#N)C(F)(F)F (stereo not drawn) | -4.12
COc1cc(C(=O)NCCC(=O)N2CCN(C)CC2)cc(OC)c1OC | -1.99
O=S(=O)(NCCO)c1ccc2cc(O)ccc2c1 | -2.47
CN1CCN(c2nc3c(c(=O)n(C)c(=O)n3C)n2Cc2ccccc2)CC1 | 7.89
O=C(CCc1nnc2n(Cc3ccccc3Cl)c(=O)c3ccccc3n12)NCCc1ccccc1 | -2.42
O=C(Nc1sc2c(c1C(=O)NCc1cccnc1)CCCC2)c1ccc(Cl)cc1 | 2.01
CN(C)/C=C1/C(=O)NC(=O)N(c2ccc(Cl)cc2)C1=O | -1.04
COC(=O)c1nn2c(C(F)(F)F)cc(-c3ccc(C)cc3)nc2c1Cl | -0.142
O=C(COc1ccc(Cl)cc1)NC1CCC(NC(=O)COc2ccc(Cl)cc2)CC1 (stereo not drawn) | -5.27
O=C(O)c1cccc(N2C(=O)C3C4CCC(C4)C3C2=O)c1 (stereo not drawn) | -4.84
CC1=CC(=C(C#N)C#N)CC(C)(C)C1 | -6.2
CCN1CCN(C(=O)c2c(C)oc3c2C(=O)c2ccccc2C3=O)CC1 | -7.35
COc1cccc(OCC(O)Cn2c(C)[n+](C)c3ccccc32)c1 (stereo not drawn) | -1.6
CCc1nn(CC(=O)NCCc2ccccc2)c(=O)c2cc3cc(F)ccc3n12 | -7.22
CCOc1cc(C(=O)Nc2ccccc2)cc(OCC)c1OCC | -4.21
COc1ccc(-c2noc(NCC3CCN(Cc4ccc(C)cc4)C3)n2)cc1OC (stereo not drawn) | -2.21
COc1ccc2nc(NC(=O)c3cn(CC(C)C)c(=O)c4c3c3ccccc3n4C)sc2c1 | 1.82
CS(=O)(=O)N(Cc1ccccc1Cl)c1ccc(C(=O)Nc2ccc3c(c2)OCO3)cc1 | -0.48
